For this test, the target named is HLA-A2 type molecule (product of the HLA-A*0201 gene) (human). In words: flow cytometry; reassociation on acid-stripped JY cells with added b2m, mAb BB7.2. For orientation: In flow cytometry, cells or beads pass a laser one at a time.
Where [1] appears, read: remark: other sources report otherwise.

Like-named read-outs stand apart in the source and are kept apart here.

-log Kd data for 13 molecules are collected here from patent US20150087809A1.

In the case of AILSPGALV (modifications not checked) [SEQ ID NO 131], the -log Kd under setting [1] was 6.24 -log Kd (M).
In the case of RALAHGVRV (modifications not checked) [SEQ ID NO 135], the -log Kd under setting [1] was 5.28 -log Kd (M).
VILDSFEPL (modifications not checked) [SEQ ID NO 162]: the -log Kd was 5.39 -log Kd (M).
For the molecule CMSADLEVV (modifications not checked) [SEQ ID NO 146], the -log Kd under setting [1] was 4.81 -log Kd (M).
In the case of KQAEAAAPV (modifications not checked) [SEQ ID NO 150], the -log Kd is 5.42 -log Kd (M).
Take KLLPRLPGV (modifications not checked) [SEQ ID NO 124]: the -log Kd is 6.71 -log Kd (M).
With DVWDWICTV (modifications not checked) [SEQ ID NO 133], the -log Kd is 4.98 -log Kd (M).
For LSDGSWSTV (modifications not checked) [SEQ ID NO 136], the -log Kd is 6.22 -log Kd (M).
YSPGEINRV (modifications not checked) [SEQ ID NO 141]: the -log Kd was 6.05 -log Kd (M).
In the case of YTNVDQDLV (modifications not checked) [SEQ ID NO 142], the -log Kd was 5.68 -log Kd (M).
Regarding VLDDHYRDV (modifications not checked) [SEQ ID NO 152], the -log Kd is 6.51 -log Kd (M).
Take WLRDVWDWI (modifications not checked) [SEQ ID NO 179]: the -log Kd was 5.68 -log Kd (M).
For VLADFKTWL (modifications not checked) [SEQ ID NO 170], the -log Kd was 6.02 -log Kd (M).
